According to PubChem BioAssay AID485281 (National Center for Advancing Translational Sciences (NCATS), 2010):
Out of some 350,000 compounds screened, about 260 (0.074%) were called active. Inconclusive means that the source gave no clear call. Such entries were picked first, then a sample of the others. Calls follow the shape of the dose curve; as a rule, active = well fitted inhibition curve with a large enough effect; inconclusive = small, poorly fitted or top-dose-only effect; inactive = no such curve, though single readings can be large or run the other way. Potencies beside an inconclusive call are fits to weak or partial responses and may not hold up.

Biological target: Ferritin light chain (Equus caballus) (UniProt P02791)
Chain of UniProt P02791 (P02791 whole entry, looked up): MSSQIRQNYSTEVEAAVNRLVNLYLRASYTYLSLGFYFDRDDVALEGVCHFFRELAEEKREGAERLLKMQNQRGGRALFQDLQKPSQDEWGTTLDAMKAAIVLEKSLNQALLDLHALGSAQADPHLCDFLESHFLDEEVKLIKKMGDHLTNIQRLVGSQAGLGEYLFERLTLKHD
Assay: qHTS Assay for Identification of Novel General Anesthetics; also: nearly all actives have a fitted effect of over 20% in size
Conditions: apoferritin/1-aminoanthracene competitive binding, fluorescence; activity change, negative = displacement: at 77.5 µM (top of the series)
Procedure, shortened: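 Steps: apoferritin (10 uM) was premixed with half-saturated 1-AMA in PBS, compounds were pin-transferred, plates stood 10 min at room temperature, fluorescence was read at 380/535 nm, and curves were fitted with a Hill equation.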
% is scaled to controls: 0 for no effect and ±100 for the full control effect; potency is read from the fitted curve at half-maximal effect; tags tell the direction and shape of the fitted curve.

Activity change, negative = displacement, inactive:
COc1cccc(-c2nnc(SCC(=O)Nc3ccc4c(c3)OCCO4)n2Cc2ccco2)c1 -10.7%, O=C(NNC(=O)c1ccccc1[N+](=O)[O-])c1ccccn1 -3.62%, COC(=O)c1ccc(C(=O)N2CCCC(Nc3ccc(C(C)C)cc3)C2)nc1 (configuration not stated) -23.5%, CCOc1ccc(NCc2cccn2-c2nnc(N3CCC(C(=O)NCCc4ccc(OC)c(OC)c4)CC3)s2)cc1 132%, C#CCN1C(=O)C(O)(CC(=O)/C=C/C=C/c2ccccc2)c2ccccc21 (configuration not stated) -23.5%, COc1ccc(OC)c(CNS(=O)(=O)c2c(C(=O)N3CCCCCC3)c(C)n(C)c2C)c1 -7.25%, O=C(CN1C(=O)CC(c2ccccc2)Sc2ccccc21)Nc1cccc(Cl)c1 (configuration not stated) 13.3%, COc1ccc(OC)c(CN2CCN(Cc3cc(=O)oc4cc(O)ccc34)CC2)c1 437%, Cc1cc(C)cc(NC(=O)c2ccc(CNc3c(N4CCOCC4)c(=O)c3=O)cc2)c1 -10.2%, N#Cc1c(N)nc2c(c1-c1ccc3c(c1)OCO3)CCc1ccccc1-2 117%, Cc1ccc(/C=N/N2CCN(c3ccccn3)CC2)cc1 -6.02%, C/C(=N\NC(=O)c1ccncc1)c1cc2ccccc2o1 -9.6%, O=S(=O)(CCOc1ccccc1)c1nc2ccccc2[nH]1 -5.02%, O=C(Nc1cccc(F)c1)/C(=C/c1ccco1)NC(=O)c1ccco1 -18.2%, Cc1nn(C(C)C(=O)NCc2cccc(F)c2)c(=O)c2c1sc1ccccc12 (configuration not stated) -0.0034%, COc1cccc(NC(=O)CN(c2cccc(C(F)(F)F)c2)S(C)(=O)=O)c1 -17.8%, COc1cc2cc(C#N)c(SCC(=O)Nc3cc(C)on3)nc2cc1OC 7.12%, CCn1c(=O)c2c(nc3n2CCCN3CCc2ccc(OC)c(OC)c2)n(C)c1=O 6.04%, N#CC1=C(S)N(c2ccccc2)C(c2ccc(-c3ccc(Cl)c(Cl)c3)o2)NC1=O (configuration not stated) -17.3%, O=C(Nc1cccc([N+](=O)[O-])c1)Nc1ccc2c(c1)CCC2 -7.21%

Potency, inconclusive:
COc1ccc(N=Cc2ccc(-c3ccccc3)o2)cc1 28.2 µM [inhibitor, partial curve], Cc1ccc(NC(=O)C2OCCc3ccccc32)cc1C (configuration not stated) 15.8 µM [inhibitor, partial curve], COc1cc(C(=O)Nc2ccc(S(=O)(=O)N3CCCCC3C)cc2)cc(OC)c1OC (configuration not stated) 11.2 µM [inhibitor, full curve, poor fit], CCC(=O)NCC(c1ccc2c(c1)OCO2)N1CCN(c2ccccc2)CC1 (configuration not stated) 7.08 µM [inhibitor, single point], CC(C)c1ccc(-c2cc(C(=O)N3N=C(C(F)F)CC3(O)C(F)F)c3ccccc3n2)cc1 (configuration not stated) 12.6 µM [inhibitor, partial curve], O=C(C(=O)N1CCN(c2ccccc2Cl)CC1)c1c[nH]c2ccccc12 15.8 µM [inhibitor, partial curve], C=CCSc1nc(-c2ccc(OC)cc2)c(C#N)c(=O)n1CC=C 31.6 µM [inhibitor, partial curve], Cc1csc(N(C)C(=O)CSc2nnc(COc3ccccc3C)o2)n1 50.1 µM [inhibitor, partial curve], CCn1c(SCC(=O)N(Cc2ccccc2)C2CCS(=O)(=O)C2)nc2ccccc2c1=O (configuration not stated) 35.5 µM [inhibitor, single point], Cc1nnn(C23CC4CC(CC(CC(=O)Nc5ccc(C)c(Cl)c5)(C4)C2)C3)n1 56.2 µM [inhibitor, single point], CN1C(=O)C2(c3ccccc31)N(c1cccc(F)c1)C(=O)CS2(=O)=O (configuration not stated) 3.16 µM [inhibitor, full curve, poor fit], O=C1/C(=C/c2cccs2)CCC1C1CCCC1 (configuration not stated) 17.8 µM [inhibitor, partial curve], COc1ccc(N2C(=O)CC(Cc3ccccc3)C2=O)cc1 (configuration not stated) 14.1 µM [inhibitor, partial curve], O=C(CCN1C(=O)C2C3C=CC(C4CC34)C2C1=O)OCC(=O)c1ccccc1 (configuration not stated) 28.2 µM [inhibitor, partial curve], Cc1ccc(CN(C)C(=O)c2ccccc2Oc2ccccc2)o1 39.8 µM [inhibitor, single point], NS(=O)(=O)c1cccc(NC(=O)CC23CC4CC(C2)CC(CC(=O)Nc2cccc(S(N)(=O)=O)c2)(C4)C3)c1 35.5 µM [inhibitor, single point], Cc1ccc(-n2ncc(C(=O)Nc3ccc4c(c3)OCO4)c2C2CCN(C(=O)OC(C)(C)C)CC2)cc1 5.01 µM [inhibitor, full curve], C=CCc1ccc(OCCOc2cccc3ccc(C)nc23)c(OC)c1 12.6 µM [inhibitor, partial curve], O=C(NC1CCS(=O)(=O)C1)Oc1ccc(Cl)cc1 (configuration not stated) 28.2 µM [inhibitor, single point], Cc1ccc(-c2cnc(NCc3ccc(C(F)(F)F)cc3)n2C)cc1 20 µM [inhibitor, partial curve], O=C(CCS(=O)(=O)c1cccc2nonc12)N1CCCc2ccccc21 31.6 µM [inhibitor, single point], COc1cccc(/C=C/C(=O)OCC(=O)NCCc2ccccc2)c1 20 µM [inhibitor, partial curve], COc1cc(NS(=O)(=O)c2cccc([N+](=O)[O-])c2)c2ncccc2c1 28.2 µM [inhibitor, single point], S=C(NCCc1ccccc1)NCc1cccc(Cl)c1 8.91 µM [inhibitor, partial curve], CN1C(=O)OC(C)(CCc2ccccc2)C1(C)O (configuration not stated) 56.2 µM [inhibitor, single point], CCc1c(C#N)c(SCc2c(C)noc2C)nc2c1C(=O)CC(C)(C)C2 25.1 µM [inhibitor, single point], Cc1nn(Cc2ccccc2Cl)c(Cl)c1/C=C/C(=O)OCC(=O)NC1CCS(=O)(=O)C1 (configuration not stated) 50.1 µM [inhibitor, single point], Cc1cc(N2C(=O)C3C4C=CC(C4)C3C2=O)ccc1Br (configuration not stated) 10 µM [inhibitor, partial curve], COc1ccc(CC(=O)Nc2nc(-c3ccncc3)cs2)cc1 25.1 µM [inhibitor, partial curve], Fc1ccc(Cl)cc1/C=N/n1cnnc1SCc1ccccc1 12.6 µM [inhibitor, partial curve], c1ccc(OCc2nn3c(-c4cccnc4)nnc3s2)cc1 31.6 µM [inhibitor, single point], O=C(Oc1cccc2ccccc12)c1ccco1 17.8 µM [inhibitor, partial curve], CN(C)S(=O)(=O)c1cccc(NC(=O)COC(=O)CCC(=O)c2cccs2)c1 25.1 µM [inhibitor, partial curve], CCn1c(=O)n(CC)c2cc(N3CCCCC3)c(NC(=O)Nc3ccccc3C(F)(F)F)cc21 50.1 µM [inhibitor, single point], O=C(OCC(=O)N1CCN(C(=O)c2ccco2)CC1)c1cc(-c2cccc(Br)c2)nc2ccccc12 35.5 µM [inhibitor, partial curve], N#CC1=C(N)OC2=C(CC/C2=C\c2ccccc2)C1c1ccccc1 (configuration not stated) 7.08 µM [inhibitor, full curve], CC(C)[C@@H]1NC(=O)c2cc([N+](=O)[O-])cc(F)c2NCCC[C@@H](C(N)=O)NC(=O)[C@H](CO)NC1=O 31.6 µM [inhibitor, partial curve], CCc1c(C)nc(SCCOc2ccc(OC)cc2)[nH]c1=O 35.5 µM [inhibitor, partial curve], O=C1CCCc2c1cc(C(=O)Nc1ccc(Cl)cn1)c(=O)n2-c1ccccc1 12.6 µM [inhibitor, partial curve], CCc1ccc(NC(=O)C2CCCN(S(=O)(=O)c3ccc4c(c3)CC(C)N4C(C)=O)C2)cc1 (configuration not stated) 3.55 µM [inhibitor, partial curve], CCC(=O)Oc1cccc(C(=O)Nc2ccc(-c3nnc(-c4ccco4)o3)cc2)c1 44.7 µM [inhibitor, partial curve], Nc1nnc(C2CCCC2)s1 31.6 µM [inhibitor, partial curve], COc1ccc(Cl)cc1C(=O)NC(=S)Nc1cc(-c2nc3ccccc3[nH]2)ccc1C 50.1 µM [inhibitor, partial curve], CC(=O)Nc1ccc(-c2csc(NCc3ccccc3)n2)cc1 25.1 µM [inhibitor, partial curve], COc1cc(/C=N/NC(=O)C(Cc2c[nH]c3ccccc23)NC(=O)OCC(C)C)cc([N+](=O)[O-])c1OCc1ccccc1 (configuration not stated) 39.8 µM [inhibitor, partial curve], O=C(CC1CCCC1)OCn1nnc2ccccc2c1=O 35.5 µM [inhibitor, partial curve], Cc1ccc(C(=O)Nc2ccc(C(=O)/C=C/c3cccs3)cc2)cc1 17.8 µM [inhibitor, partial curve]
